Assay results taken from patent EP2149585A1 (Novartis Vaccines and Diagnostics, Inc., dated 2010).

Experiments:
TRAF2 = target: T1, TRAF2 (human, UniProt Q12933 2-501); assay: immunoprecipitation of CD40 from normal human B cells, Western blot with anti-TRAF2 mAb
T1 construct: Co-precipitated from lysates of normal human B cells
T1 sequence (looked up): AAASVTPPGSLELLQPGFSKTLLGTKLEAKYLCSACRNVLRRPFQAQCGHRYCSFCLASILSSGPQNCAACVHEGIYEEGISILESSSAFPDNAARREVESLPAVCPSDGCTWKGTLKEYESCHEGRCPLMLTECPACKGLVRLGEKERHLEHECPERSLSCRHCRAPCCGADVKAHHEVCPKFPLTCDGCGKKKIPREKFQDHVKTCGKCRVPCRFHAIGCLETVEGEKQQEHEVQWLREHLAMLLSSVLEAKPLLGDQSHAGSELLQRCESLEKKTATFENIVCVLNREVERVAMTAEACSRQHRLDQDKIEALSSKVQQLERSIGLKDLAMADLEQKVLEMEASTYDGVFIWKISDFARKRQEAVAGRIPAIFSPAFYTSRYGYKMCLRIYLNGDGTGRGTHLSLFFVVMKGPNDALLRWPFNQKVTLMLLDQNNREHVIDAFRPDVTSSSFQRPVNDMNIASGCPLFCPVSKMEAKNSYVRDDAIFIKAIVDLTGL

TRAF3 = target: T2, TRAF3 (human, UniProt Q13114 1-568); assay: immunoprecipitation of CD40 from normal human B cells, Western blot with anti-TRAF3 mAb
T2 construct: Co-precipitated from lysates of normal human B cells
T2 sequence (looked up): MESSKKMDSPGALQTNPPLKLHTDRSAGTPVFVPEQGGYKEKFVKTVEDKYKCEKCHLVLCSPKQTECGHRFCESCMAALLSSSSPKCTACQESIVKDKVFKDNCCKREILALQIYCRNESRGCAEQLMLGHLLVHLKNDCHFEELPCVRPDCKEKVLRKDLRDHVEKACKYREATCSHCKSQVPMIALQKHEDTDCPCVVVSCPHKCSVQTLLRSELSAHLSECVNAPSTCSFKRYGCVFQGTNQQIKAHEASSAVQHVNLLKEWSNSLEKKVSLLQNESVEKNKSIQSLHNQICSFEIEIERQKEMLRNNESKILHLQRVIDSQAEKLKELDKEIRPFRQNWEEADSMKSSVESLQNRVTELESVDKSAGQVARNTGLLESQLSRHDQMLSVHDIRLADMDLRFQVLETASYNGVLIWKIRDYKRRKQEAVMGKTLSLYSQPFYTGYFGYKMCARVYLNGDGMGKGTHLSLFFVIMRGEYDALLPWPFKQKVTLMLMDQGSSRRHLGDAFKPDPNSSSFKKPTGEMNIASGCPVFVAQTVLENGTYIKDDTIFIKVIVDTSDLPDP

binding result (TRAF2): binds
binding result (TRAF3): binds
B1: human CD40 on the cell surface (receptor)
chain: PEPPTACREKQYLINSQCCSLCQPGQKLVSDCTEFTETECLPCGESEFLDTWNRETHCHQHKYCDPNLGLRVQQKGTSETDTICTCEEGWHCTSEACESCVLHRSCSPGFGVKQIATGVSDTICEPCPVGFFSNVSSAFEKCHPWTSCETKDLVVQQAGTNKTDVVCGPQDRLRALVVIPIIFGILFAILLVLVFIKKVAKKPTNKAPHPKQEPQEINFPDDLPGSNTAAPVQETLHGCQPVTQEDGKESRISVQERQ
notes: CD40 on Ramos cells, normal human B cells/PBMC, NHL and CLL cells; also called cell surface CD40; cell-surface CD40
